Source: patent EP0656117B1 (ISTITUTO DI RICERCHE DI BIOLOGIA MOLECOLARE P. ANGELETTI …, dated 2000)

Target: T1, interleukin 6 receptor gp 80 (soluble Human Recombinant IL-6R) (human, UniProt P08887 20-355, limits assumed)
T1 sequence (looked up): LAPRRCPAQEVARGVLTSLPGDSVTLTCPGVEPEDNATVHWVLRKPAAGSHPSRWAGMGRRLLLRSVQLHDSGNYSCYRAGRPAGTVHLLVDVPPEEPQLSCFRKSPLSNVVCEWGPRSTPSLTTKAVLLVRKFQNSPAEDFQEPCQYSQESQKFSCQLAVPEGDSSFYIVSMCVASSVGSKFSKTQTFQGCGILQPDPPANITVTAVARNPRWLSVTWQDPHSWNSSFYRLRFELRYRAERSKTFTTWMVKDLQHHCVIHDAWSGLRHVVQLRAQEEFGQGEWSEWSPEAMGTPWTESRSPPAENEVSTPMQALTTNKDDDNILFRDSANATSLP
Assay: cell-based or functional assay

B1: IL-6 Tyr31Asp/Gly35Phe (ligand)
chain: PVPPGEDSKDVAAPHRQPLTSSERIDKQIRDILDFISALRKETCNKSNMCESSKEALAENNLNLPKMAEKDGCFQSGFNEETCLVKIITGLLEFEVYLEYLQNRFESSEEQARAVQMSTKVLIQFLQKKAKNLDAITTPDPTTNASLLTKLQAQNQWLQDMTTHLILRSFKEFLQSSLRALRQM
antagonism of wild type interleukin 6 activity in tests on human hepatoma cells: 50 fold molar excess
